Source: the supplement of paper PMC10126150
Sequences with one replicate were seen in a single cluster, so their values are uncertain.

System: ATP
Assay: switch fluorescence ratio, 500 uM ATP over buffer (Cy3 cluster intensity, sum of 5 cycles each) (fold (ratio)); higher = stronger signal-on switching upon ATP binding; sequences stand for … in TCGTCGGCAGCGTCAGATGTGTATAAGAGACAGTTTTTTTTTTTTTTTTTTTTTTTTT…TC
Settings: aptamer strand: ATP DNA aptamer (quencher-CACCTGGGGGAGTATTGCGGAGGAAGG + anchor), 100 nM annealed; ATP concentration: 500 uM; one replicate
Method in brief: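 For every switch-domain sequence, the fluorescence ratio is the mean of per-cluster values, each being summed target-cycle Cy3 intensity over summed buffer-cycle Cy3 intensity. Clusters outside 100-1000 RFU were excluded. On a modified Illumina MiSeq flow-cell, the Cy3-labelled switching-strand clusters were annealed to 100 nM quencher-labelled ATP aptamer, imaged in selection buffer and then after 15 min with 500 uM ATP at 22 °C. Five such cycles were run, with NaOH stripping and re-annealing between them.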
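Further: ATP exposure 15 min at 22 °C before imaging.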

Sequence	switch fluorescence ratio
CTTAAAGTGG	0.998
CCTTAACTT	1.06
AGGTACCAA	0.987
TCAATAGGGT	0.994
AACACCGGAG	1.05
CGGCTACAAA	1.01
CTAAAGCCCG	0.964
CATGGTGC	1.17
AGAGGGGCA	0.981
TCGTTATACG	1.03
AAGCGCCGGG	0.983
GGATAAAAGC	0.971
ACGGCCAAAG	1.03
CATACTCGTT	0.975
AGGTTCGTTA	0.964
CCCATTTAG	0.979
TCTTCCACTA	1.08
AGCGGGTGCA	1.05
ATTATTCTAA	0.993
AGGTTGCCAT	0.973
TTCGACTCCC	1.12
CGTGACCGGT	0.948
GACCTATGGC	1.06

Sequence	switch fluorescence ratio
ATTGGGATTT	0.977
GGCGTGCAGG	1.04
GGGCCTTTGA	1.04
TTCCAGGATA	1.06
ACTCTAGCTT	1.22
AGCTGGTATG	0.946
TAACACGCTC	1.01
ATCTGTGGCT	1.02
GACGTTGGAG	0.993
AATATTAACA	1
CAGACACTGT	0.998
TGGGATCTGA	0.983
GCTTCCAGTG	1.15
GGAACCAAAC	1.05
CCGGCTTATA	1.13
GTTCAATATA	1.04
GTTACCCTG	0.985
TGTTTATATT	1.02
TATGGTCTT	0.962
TCTATCGGCT	0.961
CGACCTTATT	1.02
GGGTATGTTC	0.957
GACGAAACGT	1.08

Sequence	switch fluorescence ratio
GATAAGAATA	0.966
TGTCGGTGCG	0.959
GGTAGTCTGG	0.966
TGGCAACGGG	0.995
AAATTTCCCT	0.962
CGTCCCGCCG	1.05
TTCCGAAGGC	1.22
ACATGTCCCG	1.01
ACCCAATCCA	1.02
TGGACTCATA	0.996
CAGTTCATG	0.957
ACCGGCAGGC	1.77
ACATTTGTGA	1.04
TACAAGAAAG	1.03
CCGTTTGTTA	1.04
CTGATTGAAT	1
GCTTCATACG	1.98
CGCTAGGAAG	0.983
GAAGGATGCG	1.02
GTAAGAGCTT	0.963
CTATTCTAAG	0.987
CTTCGTCTAG	1.19
TGGGCGCCCT	1.01

Sequence	switch fluorescence ratio
TAAAAAGCCG	1.04
GGGCTTCTTA	0.996
AAGAGGGAAG	1.01
CGCGGCGTGA	1.03
CACATTTCTT	0.998
GCGCCAGCCT	0.998
GCCACGAGTC	1.02
AGCGTTTTAA	1.04
TAGGGCTTGG	1
GGATGGCAA	0.986
GGGCCATCTT	1.03
GATTCCTACG	3.31
AGGGCTGGCC	1.02
GCAAAATCCT	1.15
CCAAATTCAG	0.988
CTGCGGGGCG	1.01
CGTTTTAACC	0.984
TAAAAAGTTA	0.95
TGGCTGTCGG	1.01
CAGATTCAGC	1.02
TATGAGCAAT	3.09
GTTATTACAC	0.992
CTGCCGTCGC	1.02

Sequence	switch fluorescence ratio
TCCCTAGGCG	1.26
ATTGGTATAC	1.02
GTAGGAGATT	1.01
CCTATTATAG	1.01
AGGCTAGTAT	1
GAGATACACC	1.14
TCCGAACATC	1.79
TGTAGCTCG	1.08
GGCCCTTTTT	1.06
TAATAGGACT	1.02
CACATGCGCG	0.955
CATTCTGTTG	1.02
GTCGATCATG	0.969
GTCGATTTCG	1.02
AAGGACTCCA	1.06
AAGGGGCGGT	0.99
AATTACCCCT	1.06
ACGGCAAACT	1.53
GGCTATAATT	0.985
AACCAGTGC	1.19
AAAATGTCAC	1.03
CAGGTCGGGT	1.05
ACATGAGTTG	1.07

Sequence	switch fluorescence ratio
CTCATGCTAT	2.05
TAAGAGAGAT	1.01
TTGCTAGTTT	0.966
TGGGGTCCGT	1.01
TGTCTTATTG	0.971
TGGTATAGCG	0.94
TGAGAAGTCG	0.908
AACGGTAACG	1
GTGGTGTCG	1.03
ACGTGTTTAT	1.02
CAGATACTGG	1.03
CGCAATGAGA	1.9
CGATGCCAGG	1.37
TGGAAAGAT	0.999
CCTGATACGA	1.42
GGTGACACGA	1.02
TATTCAGCA	1.02
ACTCGAGAGC	0.971
CACCTCAATG	1.1
GATAAGAAGA	1.01
TTTAGCCCGC	1.05
TGGGCGTCG	0.98
ATGCGACGTA	0.948

Sequence	switch fluorescence ratio
TATCAGACGA	1
TGGAAAAGAA	1.08
CGCTGTGTTT	0.996
ACCGGTCCAG	1.02
GGTATTAATG	1
CTTGGTTGAT	1.03
CAGCTAGCAA	3.45
TCGGGAAGAA	1.01
CTGCTGCGAT	1.6
ACCAAACACT	1.11
GGTGCCGTGG	0.99
CGCCTTTCTT	0.998
CGTCATAAAT	1.01
CGCAGTCGTT	1.07
ATGTACA	1
GGGGTCATTA	1.06
CGACCTATAC	2.89
CTCGGCGGAA	1.14
CGTTGGTTAC	0.993
